# Results published in PubChem BioAssay AID488969 (Vanderbilt High Throughput Screening Facility, 2010).
# Whole data set: some 110,000 compounds, median “z-score” near -0.1, cut for the highest 2% near 2. Some of the results follow.
# Molecular target: Metabotropic glutamate receptor 8 (Rattus norvegicus) (UniProt P70579)
# Assay: mGluR8 Gi/Go-coupled signaling modulation – cell-based, rat, thallium flux, HTS, primary screen (AID 488969)
# Conditions: HEK293 rat mGluR8, GIRK (G protein-gated inwardly rectifying potassium channel) thallium flux, FluoZin2; at 10 µM; stronger effect = higher value; submaximal glutamate (EC20) added with thallium
# UniProt P70579, sequence (P70579 whole entry, looked up): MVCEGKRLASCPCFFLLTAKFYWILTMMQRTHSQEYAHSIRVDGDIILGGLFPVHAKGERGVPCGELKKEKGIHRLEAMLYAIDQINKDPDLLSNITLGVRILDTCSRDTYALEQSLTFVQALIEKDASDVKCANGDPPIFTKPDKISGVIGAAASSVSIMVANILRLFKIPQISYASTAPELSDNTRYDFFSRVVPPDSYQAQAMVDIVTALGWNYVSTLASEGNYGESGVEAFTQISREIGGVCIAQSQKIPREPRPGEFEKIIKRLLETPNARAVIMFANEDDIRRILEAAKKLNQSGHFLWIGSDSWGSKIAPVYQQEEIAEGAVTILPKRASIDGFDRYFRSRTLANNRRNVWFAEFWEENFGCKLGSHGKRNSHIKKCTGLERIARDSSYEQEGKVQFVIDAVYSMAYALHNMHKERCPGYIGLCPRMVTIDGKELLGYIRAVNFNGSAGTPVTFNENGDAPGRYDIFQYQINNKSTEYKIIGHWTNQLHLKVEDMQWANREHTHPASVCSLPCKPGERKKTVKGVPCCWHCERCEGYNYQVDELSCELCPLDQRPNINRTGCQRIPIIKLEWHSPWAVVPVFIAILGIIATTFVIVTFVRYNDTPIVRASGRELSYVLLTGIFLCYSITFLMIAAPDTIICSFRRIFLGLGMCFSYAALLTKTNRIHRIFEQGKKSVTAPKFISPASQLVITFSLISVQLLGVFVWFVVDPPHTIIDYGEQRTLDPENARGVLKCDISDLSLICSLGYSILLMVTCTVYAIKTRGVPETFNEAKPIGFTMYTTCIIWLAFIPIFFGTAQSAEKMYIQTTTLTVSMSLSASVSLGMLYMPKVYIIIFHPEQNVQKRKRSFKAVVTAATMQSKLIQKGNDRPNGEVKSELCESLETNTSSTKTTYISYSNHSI
row,SMILES,z-score
1,CCOc1ccc(/C=N/OCC(=O)NC(c2ccccc2)c2ccccc2)cc1,-0.0375
2,COC(=O)c1cc(OC)c(OC)cc1NC(=O)c1c(C)noc1C,-0.196
3,Cc1cc2nc(Sc3c([N+](=O)[O-])nc(C)n3Cc3ccccc3)[nH]c2cc1C,-0.172
4,COc1ccc(CC(=O)Nc2c3c(nn2-c2cccc(C)c2C)CS(=O)C3)cc1 (stereo not given),0.448
5,Cc1ccn2c(NC(=O)c3cccs3)c(-c3ccccc3)nc2c1,-0.235
6,Cc1ccc(/C=N/Nc2nc3ccccc3[nH]2)s1,-1.02
7,O=C(OCC(=O)c1c[nH]c2ccccc12)c1ccco1,0.55
8,CCc1ccc(/C=C2\Oc3cc(OC(=O)N4CCOCC4)ccc3C2=O)cc1,-0.203
9,Cc1nonc1OCC(C)(COc1nonc1C)NC(=O)c1ccccc1,-0.133
10,CCOCc1cnc(C)nc1NCC(=O)c1c(C)n(C)c2ccc(OC)cc12,-0.538
11,COCCCNC(=S)Nc1ccccc1C,-0.354
12,CC(C)Cc1cc(C(=O)O)n[nH]1,-0.0715
13,Cc1ccc([N+](=O)[O-])cc1S(=O)(=O)N1CCCC1,0.862
14,COC(=O)COc1ccc(S(=O)(=O)NC2CCCCCC2)cc1,0.0304
15,Cc1cc(Cl)c(S(=O)(=O)Nc2ccc3c(c2)OCCO3)cc1OCC(=O)NC1CCCCC1,-0.0409
16,CCOC(=O)N1CCC(=NNC(=O)COc2cccc(C)c2)CC1,-0.205
17,CN(CCC#N)C(=O)Cn1nc(Cc2ccncc2)c2ccccc2c1=O,1.89
18,COc1cc(/C=N/NC(=O)CN(Cc2ccco2)S(=O)(=O)c2ccccc2)ccc1O,-0.0377
19,COc1ccc(OCC(=O)Nn2c(-c3ccc(OC)cc3)nc3ccccc3c2=O)cc1,-0.171
20,Cc1nn(S(=O)(=O)c2ccccc2)c(C)c1Sc1ccc([N+](=O)[O-])cc1,0.407
21,COc1ccc(NC(=O)Cc2nnc(SCC(=O)Nc3cc(C)ccc3OC)n2C)cc1,0.127
22,CC1CCCN(CCCCOc2cccc(Br)c2)C1 (stereo not given),0.299
23,Cc1ccc2nc(Cl)c(CN(Cc3cccs3)C(=O)C3CC3)cc2c1,-0.39
24,CCOc1ccc(C(=O)Nc2ccccc2C#N)cc1[N+](=O)[O-],-0.246

row,SMILES,z-score
1,O=C(O)CCn1c(=O)c2ccccc2c2ccccc2c1=O,0.43
2,COc1ccccc1N(CC(=O)NCc1ccccc1)S(C)(=O)=O,-0.0906
3,O=C(COC(=O)C1CCN(S(=O)(=O)c2cccs2)CC1)c1cc2ccccc2o1,-0.255
4,C=C(C)Cn1c(SCC(=O)O)nnc1-c1ccccc1,0.335
5,O=C1CSc2ccc(C(=O)NCCC3=CCCCC3)cc2N1,-0.076
6,COc1cc(C2SCC(=O)N2c2nnc(C34CC5CC(CC(C5)C3)C4)s2)cc(OC)c1OC (stereo not given),-0.027
7,CC(C(N)=O)N1C(=O)c2cccc3cccc1c23 (stereo not given),-0.394
8,O=C(CCc1nc2ccccc2c(=O)[nH]1)N1CCN(C/C=C/c2ccccc2)CC1,-0.202
9,CC(=O)c1cccc(N=Nc2c(C)[nH]c3ccccc23)c1,-0.164
10,COc1nc(C)nc2c1ccc1ccccc12,-0.195
11,O=C1CC(SCCc2nc3ccccc3[nH]2)C(=O)N1c1ccc(F)cc1 (stereo not given),-0.0844
12,COc1ccc(C2C/C(=N\O)C(C)(C)O2)cc1 (stereo not given),-0.0235
13,O=C(CN1C(=O)c2ccccc2C1=O)NCC(=O)OCC(=O)c1ccc(Br)cc1,-0.128
14,O=C(c1cc(C(=O)NCCc2ccccc2)c(=O)n(CCc2ccccc2)c1)c1cc(Cl)ccc1O,0.734
15,COC(=O)/C=c1/s/c(=C(/C#N)C(=O)N2CCOCC2)n(-c2ccccc2)c1=O,0.183
16,O=C(COc1ncnc2c(Cl)cc(Cl)cc12)Nc1cc([N+](=O)[O-])ccc1Cl,-0.283
17,O=C(N/N=C/c1ccccn1)C1CC1,-0.192
18,O=C(c1ccccc1)N1CCN(Cc2cccc(Oc3ccccc3)c2)CC1,-0.231
19,Cn1nc(OC(=O)Nc2ccc(F)cc2)cc1C(F)(F)F,-0.132
20,Cc1ccc(N=Cc2sc(O)c3ccccc23)cc1,-0.16
21,O=C(/C=C/c1ccccc1)NNC(=O)c1cccc(Cl)c1,0.0372
22,Cc1cc(C(F)(F)F)nn1Cc1n[nH]c(=S)n1-c1ccc(F)cc1,1.08
23,O=C(CSc1nnc(CNC(=O)c2ccco2)o1)c1ccccc1,0.135
24,COCCN(CCOC)S(=O)(=O)c1ccc(C(=O)Nc2sc3c(c2C(N)=O)CCCCC3)cc1,-0.439

row,SMILES,z-score
1,COc1cc2c(cc1OC)CN(C(=S)Nc1ccccc1)CC2,-0.147
2,COC(=O)C1CCN(c2ccc(C(N)=O)cc2[N+](=O)[O-])CC1,-0.32
3,CCSCCOC(=O)C1=C(C)NC(=O)NC1c1cc(OC)ccc1OC (stereo not given),-0.497
4,Cc1cc(C)cc(Oc2nc(-c3ccccc3)cc(C)c2S(C)(=O)=O)c1,-0.13
5,Cc1cc(C)cc(N(CCC(=O)Nc2nnc(C3CC3)s2)S(=O)(=O)c2ccc(Cl)cc2)c1,-0.0851
6,O=C(Nc1cccnc1)C1CCCN(S(=O)(=O)c2ccccc2)C1 (stereo not given),-0.631
7,COc1ccc(C(=O)CSc2nncn2C)cc1,-0.0383
8,CC(=O)c1c(N2CCOCC2)nc(=S)n(-c2ccc([N+](=O)[O-])cc2)c1C,0.0619
9,COCCn1c(SCC(=O)Nc2sccc2C(N)=O)nc2cc(Cl)ccc2c1=O,-0.446
10,O=[N+]([O-])c1ccc(N/N=C/c2c[nH]c3ccccc23)cc1,-0.323
11,CCC(C)NC(=O)Cn1cc2c(n1)CCC(C)C2 (stereo not given),-0.283
12,COc1ccc(C(=O)Nn2c(SCC(=O)NC3CCCC3)nc3ccccc3c2=O)cc1,0.419
13,O=C(/C=C/c1cccc(F)c1)Nc1cc(S(=O)(=O)N2CCOCC2)ccc1N1CCCC1,-0.109
14,O=C(CN1C2=NCCCN2c2ccccc21)c1cccs1,-0.083
15,COc1ccc(/C=N\NC(=O)COc2ccccc2)c(C(=O)O)c1OC,-0.256
16,COc1ccc(C(=O)n2nc(-c3ccco3)nc2N)cc1,-0.0115
17,Cn1c2ccccc2c2cc(C(=O)OCC(=O)N3CC(=O)Nc4ccccc43)sc21,-1.33
18,O=C(/C=C/c1ccc(Cl)cc1)NC(=S)NN1CCCCC1c1cccnc1 (stereo not given),2.97
19,O=C(Oc1ccccc1N1C(=O)C2CCCCC2C1=O)c1ccc(Cl)cc1 (stereo not given),-0.0317
20,COc1ccccc1C(=O)NC(=S)Nc1ccc(NC(=O)c2cccs2)cc1,0.853
21,Cc1ccnc(SCCn2c(N3CCOCC3)nc3c2c(=O)n(C)c(=O)n3C)n1,0.0114
22,CCCCNC(=O)C1C2C=CC(C2)C1C(=O)O (stereo not given),-0.0934
